Test results taken from the RNAGym collection of RNA variant scans (doi:10.7554/elife.90254).
Read counts are not given, so values of variants with three or more changes are uncertain.

B1: LINE1-mini (parent)
chain: GGCAGAGCUCAACACAGCGUGGCAAAGUGGCUGUGGCUAGACUGCC

Variants of: B1
Assay: self-cleavage, relative activity (ratio to wild type); higher = more cleavage; in vitro, sequencing; the parent is a self-cleaving ribozyme

Row | Variant | self-cleavage
1 | GGCAGAGCUCAACACAGUGUGGCAAUGUGGCUGUGGCUAGACUCCC [C18U A26U G44C] | 0.2
2 | GGCAGAGCUCAACACAGGGUGGCAAAGUGGCUGCCGGUAGACUGCC [C18G U34C G35C C37G] | 0.02
3 | GGCAGAGCUCAACACAGUGUGGCAGAGUGGCUGUGGCUAGCCUUCC [C18U A25G A41C G44U] | 0.04
4 | GGCAGAGCUCAACACAGGGUGGCAAAGACGCUGUGACUAGACUGCC [C18G U28A G29C G36A] | 0.06
5 | GGCAGAGCUCAACACAGGGUGGCAAAGUGGCCGUGGUUAGACUGCC [C18G U32C C37U] | 0.04
6 | GGCAGAGCUCAACACAGUGUGGCAUAGGGGAUGUGUCUAGAUUGCC [C18U A25U U28G C31A G36U C42U] | 0.01
7 | GGCAGAGCUCAACACAGGGUGGCAAAGACGCUGUGGCUAGAUUACC [C18G U28A G29C C42U G44A] | 0.04
8 | GGCAGAGCUCAACACAGUGUGGCAAAGUGGCUGUGGCUGGACUUCC [C18U A39G G44U] | 0.01
9 | GGCAGAGCUCAACACAGUGUGGCAAGGUGGCUGUGGCUUGACUGCC [C18U A26G A39U] | 0.08
10 | GGCAGAGCUCAACACAGGGUGGCAAAGAGGCUGAGGCUAGACUACC [C18G U28A U34A G44A] | 0.21
11 | GGCAGAGCUCAACACAGUGUGGCCAAGUAGCUUUGGCUAGACUGCC [C18U A24C G29A G33U] | 0.02
12 | GGCAGAGCUCAACACAGUGUGGCGAGGUGGCUGUGGCUAGACUGCC [C18U A24G A26G] | 0.2
13 | GGCAGAGCUCAACACAGGGUGGCAAAGUGGCUGUGGCUAAUCUGCC [C18G G40A A41U] | 0.16
14 | GGCAGAGCUCAACACAGUGUGGCCUAGUGGCUGUGGCUAAACUGCC [C18U A24C A25U G40A] | 0.04
15 | GGCAGAGCUCAACACAGGGUGGCAAAGGGGCUGUGGCUAGAAUGGC [C18G U28G C42A C45G] | 0.02
16 | GGCAGAGCUCAACACAGGGGGGUAAAGUGGCUGUGGCUAGACUACC [C18G U20G C23U G44A] | 0.24
17 | GGCAGAGCUCAACACAGGGUGGCAAAGUGGCUGAGGCUUGACUGCC [C18G U34A A39U] | 0.01
18 | GGCAGAGCUCAACACAGGGUGGCAAAGUGGCUAGGGCUAGACUUCC [C18G G33A U34G G44U] | 0.05
19 | GGCAGAGCUCAACACAGGGUGGCAAAGCGCCUGUGGCUAGACUGCC [C18G U28C G30C] | 0.48

Row | Variant | self-cleavage
20 | GGCAGAGCUCAACACAGGGUGGCAAAGUGGCUGGGACUAGACUGCC [C18G U34G G36A] | 0.07
21 | GGCAGAGCUCAACACAGUGUGGCUAAGUGGCUGUUGCUAGACUGCC [C18U A24U G35U] | 0.13
22 | GGCAGAGCUCAACACAGGGAGGCAAAGUGGCUGUGGCUAUACUGCC [C18G U20A G40U] | 0.01
23 | GGCAGAGCUCAACACAGUGUGGCCAAGUCGCUGUGGCUAGACUGCC [C18U A24C G29C] | 0.18
24 | GGCAGAGCUCAACACAGUGUGGCACAAUGGCUGUGGCUAGACUGCC [C18U A25C G27A] | 0.47
25 | GGCAGAGCUCAACACAGGGUGGCAAAGUGGCUUUGACUAGACCGCC [C18G G33U G36A U43C] | 0.03
26 | GGCAGAGCUCAACACAGUGUGGCUAAGUGGCUGUGCUUAGACUGCC [C18U A24U G36C C37U] | 0.03
27 | GGCAGAGCUCAACACAGUGUGGCAACGUGGCUGUGGCUGGACUGCC [C18U A26C A39G] | 0.02
28 | GGCAGAGCUCAACACAGGGUGGCAAAGUGUCUGUGGCCAGACUGCC [C18G G30U U38C] | 0.07
29 | GGCAGAGCUCAACACAGGGAGGCAAAGUGGCUGUAGCUAGACUGCG [C18G U20A G35A C46G] | 0.02
30 | GGCAGAGCUCAACACAGUGUGGCAGAGUGGCUGUCGCUGGACUGCC [C18U A25G G35C A39G] | 0.02
31 | GGCAGAGCUCAACACAGGGUGGCAAAGUGGCGGUGGCUAGAAUGCA [C18G U32G C42A C46A] | 0.03
32 | GGCAGAGCUCAACACAGGGUGGCAAAGUGGCUGUGGCCAGAAUCCC [C18G U38C C42A G44C] | 0.02
33 | GGCAGAGCUCAACACAGGGGGGAAAAGUGGCUGUGGCCAGACUUCC [C18G U20G C23A U38C G44U] | 0
34 | GGCAGAGCUCAACACAGGGUGGCAAAGUGGCUUUGGCUAGACUGCG [C18G G33U C46G] | 0.08
35 | GGCAGAGCUCAACACAGUGUGGCAAGGUGGUAGUGGCUAGAUUGCC [C18U A26G C31U U32A C42U] | 0.06
36 | GGCAGAGCUCAACACAGGGUGGCAAAGUGGCUGGGGCUAGACUGGG [C18G U34G C45G C46G] | 0.02
37 | GGCAGAGCUCAACACAGUGUGGCAAUGUGGCUGUGGCUAGCCUGCC [C18U A26U A41C] | 0.09
38 | GGCAGAGCUCAACACAGUGUGGAAAAGUGGCUGUGGCUAGACUGGC [C18U C23A C45G] | 1.27

Row | Variant | self-cleavage
39 | GGCAGAGCUCAACACAGGGUGGCAAAGUGGCUUUGGCUAGCCUGCC [C18G G33U A41C] | 0.09
40 | GGCAGAGCUCAACACAGGGGGGCAAAGUGGCUGUGUCUAGACUGCC [C18G U20G G36U] | 0.07
41 | GGCAGAGCUCAACACAGUGUGGCAACGUGGCAGUGGUUAGACUGCC [C18U A26C U32A C37U] | 0.01
42 | GGCAGAGCUCAACACAGUGUGGCAAAGUGGCUGUGGCUCGUCUGCC [C18U A39C A41U] | 0.43
43 | GGCAGAGCUCAACACAGGGAGGCAAAGAGGCUUUGGCUAGACUGCC [C18G U20A U28A G33U] | 0.11
44 | GGCAGAGCUCAACACAGUGUGGCUGAGUGGCUGUGGCUAGACUGCC [C18U A24U A25G] | 0.19
45 | GGCAGAGCUCAACACAGUGUGGCAAGGUGCCUGUGGCUAGACUGCC [C18U A26G G30C] | 0.29
46 | GGCAGAGCUCAACACAGGGCGGCAACGUGGCUGUGGCUAGACUGCC [C18G U20C A26C] | 0.18
47 | GGCAGAGCUCAACACAGGGUGGCAAAGUGGCUGUGACAAGACUGCC [C18G G36A U38A] | 0.13
48 | GGCAGAGCUCAACACAGGGUGGCAAAGUGGCUGUGGCUAGACCGCG [C18G U43C C46G] | 0.02
49 | GGCAGAGCUCAACACAGUGUGGCAAGGUGGCUGAGGCUAGACUGCC [C18U A26G U34A] | 0.03
50 | GGCAGAGCUCAACACAGUGUGGCAAUUUGGCUGCGGCUAGACUGCC [C18U A26U G27U U34C] | 0.02
51 | GGCAGAGCUCAACACAGUGUGGAAGAGCGGCUGUGGCUAGACUGCC [C18U C23A A25G U28C] | 0.23
52 | GGCAGAGCUCAACACAGUGUGGCAUAGUGGCUGUGGCAAGACUGCC [C18U A25U U38A] | 1.17
53 | GGCAGAGCUCAACACAGUGUGGCAUAGUGGCUGUGGCGAGACUGCC [C18U A25U U38G] | 0
54 | GGCAGAGCUCAACACAGUGUGGCAAUGUGGCUGUAGCUAGACUGCC [C18U A26U G35A] | 0.03
55 | GGCAGAGCUCAACACAGUGUGGCAUAGUGGCUGUGGGUAGACUGCC [C18U A25U C37G] | 0.02
56 | GGCAGAGCUCAACACAGGGUGGCAAAGUGGCUGGGGCUAGACUGAC [C18G U34G C45A] | 0.04
